Among the data in patent US20250214977A1, “STAT6 INHIBITORS AND USES THEREOF” (Kymera Therapeutics, Inc., priority 2024, published 2025) are IC50 values, retold here.

The structures appear in SMILES notation.

For this experiment, the target named is T1, biotinylated truncated STAT6 (123-632)-avi (Homo sapiens, UniProt P42226).
T1 sequence (P42226 123-632 limits assumed): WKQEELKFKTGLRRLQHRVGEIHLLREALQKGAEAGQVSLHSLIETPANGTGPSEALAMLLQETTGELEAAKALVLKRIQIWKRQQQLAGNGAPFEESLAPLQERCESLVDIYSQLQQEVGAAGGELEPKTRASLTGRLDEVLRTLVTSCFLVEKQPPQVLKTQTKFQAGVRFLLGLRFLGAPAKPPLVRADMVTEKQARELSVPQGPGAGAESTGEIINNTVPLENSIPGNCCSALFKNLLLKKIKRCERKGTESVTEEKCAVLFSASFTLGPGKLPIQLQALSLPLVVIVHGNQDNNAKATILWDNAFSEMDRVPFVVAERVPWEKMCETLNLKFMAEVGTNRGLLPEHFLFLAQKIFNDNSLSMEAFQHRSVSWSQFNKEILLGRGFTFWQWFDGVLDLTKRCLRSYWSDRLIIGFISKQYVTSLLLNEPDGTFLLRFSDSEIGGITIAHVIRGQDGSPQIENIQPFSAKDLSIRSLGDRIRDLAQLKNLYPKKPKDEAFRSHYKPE
Kind of experiment: Homogenous Time-Resolved Fluorescence (HTRF) binding assay. As to conditions: 0.15 nM biotinylated truncated STAT6 (123-632)-avi, 20 nM fluorescein-labeled probe. In general terms: Time-resolved FRET reads energy transfer from a long-lived donor to a nearby acceptor.

In turn, `COc1cc(F)cnc1N1CCN(C(=O)c2cc3c(-c4cnc5c(C)cccc5c4)cc(C4=CCCN(C(=O)CCn5ccnn5)C4)c(F)c3[nH]2)CC1` [Example I-672] had an IC50 (30 minutes at room temperature) below 100 nM. In turn, `COc1cc(F)cnc1N1CCN(C(=O)c2cc3c(-c4ccncc4C(C)C)cc(C4=CCCN(C(=O)CCn5cccn5)C4)c(F)c3[nH]2)CC1` [Example I-685] yielded an IC50 (30 minutes at room temperature) below 100 nM. Regarding `COc1ccccc1-c1cc(C2=CCCN(C(=O)CCn3ccnn3)C2)c(F)c2[nH]c(C(=O)N3CCN(c4cc(=O)[nH]cc4F)CC3)cc12` [Example I-779], the IC50 (30 minutes at room temperature) was below 100 nM. Consider `CN(C)C(=O)c1cc2ccc(C3=CCCN(C(=O)CCc4ccon4)C3)cc2[nH]1` [Example I-831], for which the IC50 (30 minutes at room temperature) fell in the range of 100 to 1000 nM. Same read-out and setting: under `CN(C)C(=O)c1cc2cc(C3=CCCN(C(=O)CCn4ccnn4)C3)cc(NCC3CC(F)(F)C3)c2o1` [Example I-873] stands below 100 nM; under `CC(=O)N1CCC=C(c2cc(-c3ccc(C)cc3O)c3cc(C(=O)N(C)C)[nH]c3c2F)C1` [Example I-886], 100 to 1000 nM. As to `COc1cccnc1N1CCN(C(=O)c2cc3ccc(C4=CCCN(C(C)=O)C4)c(F)c3[nH]2)CC1` [Example I-902], the IC50 (30 minutes at room temperature) lay in the range of 1000 to 10000 nM.

As to `COc1ccccc1-c1cc(C2=CCCN(C(=O)CCn3ccnn3)C2)c(F)c2[nH]c(C(=O)N3CCN(c4cc(O)cc5ccccc45)CC3)cc12` [Example I-930], the IC50 (30 minutes at room temperature) was in the range of 100 to 1000 nM. Regarding `COc1ccccc1-c1cc(C2=CCCN(C(=O)CCn3ccnn3)C2)c(F)c2[nH]c(C(=O)N3CCN(c4cn(C)c(=O)n(C)c4=O)CC3)cc12` [Example I-949], under “30 minutes at room temperature”, the IC50 was below 100 nM. Regarding `COc1ccccc1-c1cc(C2=CCCN(C(=O)CCn3ccnn3)C2)c(F)c2[nH]c(C(=O)N3CCN(c4ccc5ccccc5c4OC)CC3)cc12` [Example I-956], where the note is “30 minutes at room temperature”, the IC50 is 1000 to 10000 nM.

`COc1ccccc1-c1cc(C2=CCCN(C(=O)CCn3ccnn3)C2)c(F)c2[nH]c(C(=O)N(C)CCc3ccccn3)cc12` [Example I-986]: where the note is “30 minutes at room temperature”, the IC50 was below 100 nM. The same measure, in the same setting: under `CCCN1CCN(C(=O)c2cc3c(-c4ccccc4OC)cc(C4=CCCN(C(=O)CCn5ccnn5)C4)c(F)c3[nH]2)C[C@@H]1C` [Example I-997] stands below 100 nM; under `COc1ccccc1-c1cc(C2=CCCN(C(=O)CCn3ccnn3)C2)c(F)c2[nH]c(C(=O)N3CCO[C@H](C)C3)cc12` [Example I-1007], below 100 nM.

Where the note is “30 minutes at room temperature”, `COc1ccccc1-c1cc(C2=CCCN(C(=O)CCn3ccnn3)C2)c(F)c2[nH]c(C(=O)N3CCN(c4cccc(=O)n4C)CC3)cc12` [Example I-1020] displayed an IC50 below 100 nM. As to `COc1ccccc1-c1cc(C2=CCCN(C(=O)CCn3ccnn3)C2)c(F)c2[nH]c(C(=O)N3CCN(c4ccnn4C)CC3)cc12` [Example I-1025], the IC50 (30 minutes at room temperature) was below 100 nM. Compound `COc1ccccc1-c1cc(C2=CCCN(C(=O)CCn3ccnn3)C2)c(F)c2[nH]c(C(=O)Nc3cccn(C)c3=O)cc12` [Example I-1027] registered an IC50 (30 minutes at room temperature) of 100 to 1000 nM. Under “30 minutes at room temperature”, `COC(=O)c1cnn(-c2cc(C3=CCCN(C(=O)CCn4ccnn4)C3)cc3cc(C(=O)N(C)C)oc23)c1` [Example I-1049] showed an IC50 of 100 to 1000 nM. In turn, `COc1ccc(C)cc1-c1cc(C2=CCCN(C(=O)CCn3ccnn3)C2)cc2[nH]c(C(=O)N(C)C)cc12` [Example I-1057] returned an IC50 (30 minutes at room temperature) below 100 nM. Still for that read-out and setting: under `COc1cc(C)c(-c2cc(C3=CCCN(C(=O)CCn4ccnn4)C3)cc3cc(C(=O)N(C)C)oc23)cc1C` [Example I-1078] stands below 100 nM; under `Cc1cc(F)ccc1-c1cc(C2=CCCN(C(=O)CCn3ccnn3)C2)cc2cc(C(=O)N(C)C)oc12` [Example I-1083], below 100 nM. The compound `COc1cncc(C)c1-c1cc(C2=CCCN(C(=O)CCn3ccnn3)C2)cc2cc(C(=O)N(C)C)oc12` [Example I-1090] registered an IC50 (30 minutes at room temperature) below 100 nM.

In turn, `CC(=O)N1CCC=C(c2cc(-c3cncc4ccccc34)c3cc(C(=O)N(C)C)[nH]c3c2F)C1` [Example I-1098] displayed an IC50 (30 minutes at room temperature) below 100 nM. Consider `COc1cc(F)cnc1N1CCN(C(=O)c2cc3c(C4=CC(=O)CC4)cc(C4=CCCN(C(=O)CCn5ccnn5)C4)c(F)c3[nH]2)CC1` [Example I-1116], for which the IC50 (30 minutes at room temperature) is below 100 nM.

In turn, `CCOCc1cc(-c2cc(C3=CCCN(C(=O)CCn4ccnn4)C3)c(F)c3[nH]c(C(=O)N4CCN(c5ncc(F)cc5OC)CC4)cc23)ccc1F` [Example I-1128] displayed an IC50 (30 minutes at room temperature) below 100 nM. The compound `COc1cc(F)cnc1N1CCN(C(=O)c2cc3c(C4=CCC5(CC4)CC5)cc(C4=CCCN(C(=O)CCn5ccnn5)C4)c(F)c3[nH]2)CC1` [Example I-1159] came in with an IC50 (30 minutes at room temperature) of 100 to 1000 nM. For the compound `COc1cc(F)cnc1N1CCN(C(=O)c2cc3c(-c4ccc(OC5CCCCO5)cc4)cc(C4=CCCN(C(=O)CCn5ccnn5)C4)c(F)c3[nH]2)CC1` (stereo not shown) [Example I-1166], the IC50 (30 minutes at room temperature) was below 100 nM. `COc1ccccc1-c1cc(C2=CCCN(C(=O)CCn3ccnn3)C2)c(F)c2[nH]c(C(=O)N3CCN(Cc4c(C)nn(C)c4C)CC3)cc12` [Example I-1182] showed an IC50 (30 minutes at room temperature) below 100 nM. For the setting “30 minutes at room temperature”, `COc1ccncc1-c1cc(C(=O)N2CCN(c3ncc(F)cc3OC)CC2)cc2cc(C3CCCN(C(=O)CCn4ccnn4)C3)[nH]c12` (stereo not shown) [Example I-1203] displayed an IC50 of 1000 to 10000 nM.

Turning to `CCc1nc(C)ccc1-c1cc(C(=O)N2Cc3cnn(C)c3C2)cc2sc(C3=CCCN(C(=O)CCn4ccnn4)C3)cc12` [Example I-1212], the IC50 (30 minutes at room temperature) is below 100 nM.

As for `CCc1nc(C)ccc1-c1cc(C(=O)N2CCN(c3ncc(F)cc3OC)CC2)cc2cc(C3=CCCN(C(C)=O)C3)n(CC3CCN(C)C3)c12` (stereo not shown) [Example I-1221], the IC50 (30 minutes room temperature) was below 100 nM.

In turn, `CN(C)C(=O)c1cc2ccc(C3CCCC(C(=O)Nc4cccc(C(N)=O)c4)C3)c(F)c2[nH]1` (stereo not shown) [Example I-1248] yielded an IC50 (30 minutes room temperature) of 1000 to 10000 nM.

On to `CN(C)C(=O)c1cc2ccc(C3=CCCN(C(=O)CCc4nc(C(N)=O)cs4)C3)c(F)c2[nH]1` [Example I-1250], for which, for the setting “30 minutes room temperature”, the half-inhibitory concentration (IC50) is below 100 nM. On the same count and under the same terms, under `O=C(CCn1ccnn1)N1CCC=C(c2ccc3oc(-c4cnn(C5CC5)c4)cc3c2)C1` [Example I-1278] stands 10000 to 100000 nM; under `Cc1oncc1-c1cc2cc(C3=CCCN(C(=O)CCn4ccnn4)C3)ccc2o1` [Example I-1286], 10000 to 100000 nM; under `O=C(CCn1ccnn1)N1CCC=C(c2ccc3cc(-c4ccccn4)[nH]c3c2)C1` [Example I-1311], 10000 to 100000 nM.

`CNC1CCN(C(=O)c2cc3c(-c4ccccc4OC)cc(C4=CCCN(C(=O)CCn5ccnn5)C4)c(F)c3[nH]2)C1` (stereo not shown) [Example I-1359] displayed an IC50 (30 minutes room temperature) of 100 to 1000 nM.

`COc1ccccc1-c1cc(C2=CCCN(C(=O)CCn3ccnn3)C2)c(F)c2[nH]c(C(=O)N3CCN(c4cnn(C)n4)CC3)cc12` [Example I-1362] yielded an IC50 (30 minutes room temperature) below 100 nM.

For the setting “30 minutes room temperature”, `COc1ccccc1-c1cc(C2=CCCN(C(=O)CCn3ccnn3)C2)c(F)c2[nH]c(C(=O)N3CCN(c4ccn(C)c(=O)c4)CC3)cc12` [Example I-1369] yielded an IC50 below 100 nM. Consider `COc1ccccc1-c1cc(C2=CCCN(C(=O)CCn3ccnn3)C2)c(F)c2[nH]c(C(=O)N3CCN(c4cc(C)nc(C)c4)CC3)cc12` [Example I-1381], for which, under “30 minutes room temperature”, the IC50 is below 100 nM. The same measure, in the same setting: under `COc1ccccc1-c1cc(C2=CCCN(C(=O)CCn3ccnn3)C2)c(F)c2[nH]c(C(=O)N3CCC(C)(O)CC3)cc12` [Example I-1415] stands below 100 nM; under `COc1ccccc1-c1cc(C2=CCCN(C(=O)CCn3ccnn3)C2)c(F)c2[nH]c(C(=O)N3CCN(c4ccc5ccncc5n4)CC3)cc12` [Example I-1445], below 100 nM; under `COc1cc2c(N3CCN(C(=O)c4cc5c(-c6ccccc6OC)cc(C6=CCCN(C(=O)CCn7ccnn7)C6)c(F)c5[nH]4)CC3)ccnc2cc1O` [Example I-1449], below 100 nM. Same read-out and setting: under `COc1ccccc1-c1cc(C2=CCCN(C(=O)CCn3ccnn3)C2)c(F)c2[nH]c(C(=O)N3CCN(c4ccc(-c5nc6ccccc6s5)cc4)CC3)cc12` [Example I-1464] stands 100 to 1000 nM; under `COc1ccccc1-c1cc(C(=O)N(C)C)cc2sc(C3=CCCN(C(=O)CCc4nccs4)C3)nc12` [Example I-1477], below 100 nM; under `CC(=O)N1CCC=C(c2cc(-c3cc(C)c(C)cc3C)c3cc(C(=O)N(C)C)[nH]c3c2F)C1` [Example I-1502], 100 to 1000 nM. As to `CC(=O)N1CCC=C(c2cc(-c3cnn(C)c3)c3cc(C(=O)N(C)C)[nH]c3c2F)C1` [Example I-1507], the IC50 (30 minutes room temperature) fell in the range of 100 to 1000 nM. Same read-out and setting: under `COc1ccccc1N1CCN(c2cc(C3=CCCN(C(=O)CCn4ccnn4)C3)cc3cc(C(=O)N(C)C)oc23)CC1` [Example I-1514] stands 100 to 1000 nM; under `COc1ccccc1-c1cc(C2=CCCN(C(=O)CCn3ccnn3)C2)c(F)c2[nH]c(C(=O)N3CCCNC(=O)C3)cc12` [Example I-1519], below 100 nM; under `Cc1ccc(C2CCCN2C(=O)c2cc3cc(C4=CCCN(C(=O)CCn5ccnn5)C4)ccc3o2)cc1` (stereo not shown) [Example I-1611], 1000 to 10000 nM. In turn, `CCN(C)C(=O)c1cc2c(-c3ccccc3OC)cc(C3=CCCN(C(=O)CCn4ccnn4)C3)c(F)c2[nH]1` [Example I-1622] returned an IC50 (30 minutes room temperature) below 100 nM. `COc1ccccc1-c1cc(C2=CCCN(C(=O)CCn3ccnn3)C2)c(F)c2[nH]c(C(=O)N3CCCOCC3)cc12` [Example I-1623] displayed an IC50 (30 minutes room temperature) below 100 nM. Regarding `CN(C)C(=O)c1cc2c(Oc3ccccc3)cc(C3=CCCN(C(=O)CCn4ccnn4)C3)c(F)c2[nH]1` [Example I-1627], the IC50 (30 minutes room temperature) was below 100 nM.

By IC50 is commonly meant the concentration at which inhibition is half-maximal.
